Data on twelve molecules can be found in publication PMC11213948 (2024).

The chains behind the UniProt entries cited, without tags or fusion partners.
UniProt P57678: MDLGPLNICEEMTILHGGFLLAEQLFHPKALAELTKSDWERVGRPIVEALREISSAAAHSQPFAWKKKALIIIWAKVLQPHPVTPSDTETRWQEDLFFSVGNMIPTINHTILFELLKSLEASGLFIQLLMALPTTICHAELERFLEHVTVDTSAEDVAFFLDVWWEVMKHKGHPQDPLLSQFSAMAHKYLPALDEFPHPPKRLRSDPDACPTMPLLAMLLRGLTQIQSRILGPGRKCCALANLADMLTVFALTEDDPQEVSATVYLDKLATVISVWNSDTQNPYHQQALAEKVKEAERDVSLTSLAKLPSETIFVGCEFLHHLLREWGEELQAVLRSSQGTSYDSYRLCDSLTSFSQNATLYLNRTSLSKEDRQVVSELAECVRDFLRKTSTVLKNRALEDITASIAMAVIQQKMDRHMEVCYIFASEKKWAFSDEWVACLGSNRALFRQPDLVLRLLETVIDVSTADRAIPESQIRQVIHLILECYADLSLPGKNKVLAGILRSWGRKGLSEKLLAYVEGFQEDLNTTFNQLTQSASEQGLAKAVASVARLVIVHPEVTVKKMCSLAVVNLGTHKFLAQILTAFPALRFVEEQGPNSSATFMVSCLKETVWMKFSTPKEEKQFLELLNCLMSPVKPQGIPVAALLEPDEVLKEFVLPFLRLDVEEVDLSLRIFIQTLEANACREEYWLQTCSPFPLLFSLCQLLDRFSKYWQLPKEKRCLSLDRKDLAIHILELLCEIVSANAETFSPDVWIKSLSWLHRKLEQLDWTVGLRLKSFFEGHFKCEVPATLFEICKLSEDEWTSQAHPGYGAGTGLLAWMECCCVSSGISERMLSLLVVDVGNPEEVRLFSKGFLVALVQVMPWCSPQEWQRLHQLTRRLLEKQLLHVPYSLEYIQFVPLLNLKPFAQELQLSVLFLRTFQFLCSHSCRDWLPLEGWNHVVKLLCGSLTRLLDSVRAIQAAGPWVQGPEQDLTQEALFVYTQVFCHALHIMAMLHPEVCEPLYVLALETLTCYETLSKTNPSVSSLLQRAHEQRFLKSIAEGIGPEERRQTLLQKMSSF
UniProt Q16637: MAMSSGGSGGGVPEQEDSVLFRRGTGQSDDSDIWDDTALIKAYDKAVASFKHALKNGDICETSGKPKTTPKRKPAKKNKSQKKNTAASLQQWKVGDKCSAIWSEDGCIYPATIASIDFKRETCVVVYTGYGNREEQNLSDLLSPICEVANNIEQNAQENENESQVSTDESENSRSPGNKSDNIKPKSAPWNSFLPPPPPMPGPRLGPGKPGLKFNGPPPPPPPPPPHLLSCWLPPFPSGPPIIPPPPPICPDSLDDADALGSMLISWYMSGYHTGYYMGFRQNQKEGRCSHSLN
UniProt O14893: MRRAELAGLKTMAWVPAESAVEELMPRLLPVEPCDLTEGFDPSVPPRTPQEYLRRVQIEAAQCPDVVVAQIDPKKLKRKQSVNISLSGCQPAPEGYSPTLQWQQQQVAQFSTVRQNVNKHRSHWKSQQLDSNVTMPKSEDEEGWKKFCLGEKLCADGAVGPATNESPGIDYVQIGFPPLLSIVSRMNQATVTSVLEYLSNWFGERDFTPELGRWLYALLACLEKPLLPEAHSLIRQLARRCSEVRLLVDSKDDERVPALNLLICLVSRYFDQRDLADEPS

The target of assay [1] is TAP-tagged G5_(1287–1508) (UniProt Q8TEQ6). The experiment in a line: co-IP; TAP purification of TAP-tagged Gemin5 regions from transfected HEK293 cells, western blot with anti-SMN, anti-Gemin2 and anti-Gemin4; three independent experiments. In general terms: In western blotting, separated proteins are transferred to a membrane and probed.
Assay [2] deals with TAP-tagged G5_(1–1287) (UniProt Q8TEQ6). The assay is described as above.
Assay [3] concerns the target TAP-tagged G5_(1–1508) (UniProt Q8TEQ6). The description is as above.
Assay [4] concerns the target TAP-tagged G5_(1–739) (UniProt Q8TEQ6). The description is as above.
For assay [5], the target named is TAP-tagged G5_(845–1287) (UniProt Q8TEQ6). The assay is described as above.
The target of assay [6] is TAP-tagged G5_(845–1508) (UniProt Q8TEQ6). Described as above.
For assay [7], the target named is TAP-tagged G5_(845–1508)AxE (UniProt Q8TEQ6). The assay is described as above.
Assay [8] concerns the target Xpress-His G5_(1–739) (UniProt Q8TEQ6). The experiment in a line: SDS-PAGE and western blot of oligomers resistant to DTT; lysates of HEK293 cells expressing Xpress-His constructs mixed with SDS-loading buffer with or without 5 mM additional DTT, 3 min 92 °C; western blot with anti-Xpress.
The target in assay [9] is Xpress-His G5_(845–1287)AxE (UniProt Q8TEQ6). Described as above.
For assay [10], the target named is Xpress-His G5_(845–1508)AxE (UniProt Q8TEQ6). Described as above.
Assay [11] addresses Xpress-His G5_(1–1508)AxE (UniProt Q8TEQ6). The assay is described as above.
In assay [12] the target is Xpress-His G5_(1287–1508) (UniProt Q8TEQ6). The experiment in a line: pull-down; Ni-NTA agarose pull-down of Xpress-His proteins from lysates of HEK293 cells co-transfected with G5(1-1508)-FLAG; 10 mM Tris-HCl pH 7.5, 20 mM NaCl, 10 mM KCl, 5 mM MgCl2, 4 °C, 1 h; western blot with anti-FLAG and anti-Xpress.
Assay [13] addresses Xpress-His G5_(1–1287) (UniProt Q8TEQ6). The description is as above.
In assay [14] the target is Xpress-His G5_(1–1508)AxE (UniProt Q8TEQ6). Described as above.
The target of assay [15] is Xpress-His G5_(1–739) (UniProt Q8TEQ6). The description is as above.
The target in assay [16] is Xpress-His G5_(845–1287) (UniProt Q8TEQ6). The assay is described as above.
For assay [17], the target named is Xpress-His G5_(845–1508) (UniProt Q8TEQ6). Described as above.
In assay [18] the target is Xpress-His G5_(845–1287) (UniProt Q8TEQ6). The assay is described as follows: SDS-PAGE and western blot of oligomers resistant to DTT; lysates of HEK293 cells expressing Xpress-His constructs mixed with SDS-loading buffer with or without 5 mM additional DTT, 3 min 92 °C; western blot with anti-Xpress.
Assay [19] addresses Xpress-His G5_(1–1287) (UniProt Q8TEQ6). Described as above.
Assay [20] deals with Xpress-His G5_(1–1287)AxE (UniProt Q8TEQ6). The description is as above.
Assay [21] concerns the target T1, Xpress-His G5_(845–1508), Q8TEQ6.
T1 chain: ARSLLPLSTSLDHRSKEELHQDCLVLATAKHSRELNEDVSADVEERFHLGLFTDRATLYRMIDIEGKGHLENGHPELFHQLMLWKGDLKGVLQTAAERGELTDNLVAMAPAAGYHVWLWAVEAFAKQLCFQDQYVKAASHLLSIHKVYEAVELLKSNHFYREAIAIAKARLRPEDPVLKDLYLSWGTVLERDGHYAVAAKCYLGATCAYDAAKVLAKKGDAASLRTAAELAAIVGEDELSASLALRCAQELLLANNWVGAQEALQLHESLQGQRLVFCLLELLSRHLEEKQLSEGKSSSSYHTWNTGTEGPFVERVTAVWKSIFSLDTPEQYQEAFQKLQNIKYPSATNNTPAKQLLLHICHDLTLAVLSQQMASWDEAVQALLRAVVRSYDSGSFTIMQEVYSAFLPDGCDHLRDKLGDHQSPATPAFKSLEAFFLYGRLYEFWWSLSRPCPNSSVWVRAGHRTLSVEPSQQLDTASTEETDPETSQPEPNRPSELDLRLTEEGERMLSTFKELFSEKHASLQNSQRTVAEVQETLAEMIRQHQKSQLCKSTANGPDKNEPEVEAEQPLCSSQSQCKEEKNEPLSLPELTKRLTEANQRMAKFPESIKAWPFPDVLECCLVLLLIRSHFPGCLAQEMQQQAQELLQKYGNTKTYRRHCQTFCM
Described as above. The note with it: remark: other sources report otherwise.

No constants are given. Whether binding was seen depends on the method and setting. For some assays here: Binding seen in cells or lysates may run through a third protein. Some binding calls cover weakened binding; strength is not graded here. For some assays here: Sequences can lack the tags named with a protein.

Consider Gemin4 (from UniProt P57678 1-1058), for which the binding entry was “no binding” in [1]; “binds” in assay [2]; “binds” in assay [3]; “no binding” in [4]; “binds” in assay [5]; “binds” in assay [6]. For the same molecule, the binding entry in assay [7] is recorded as “no binding”.

For the molecule “Xpress-His G5_(1–739) (from UniProt Q8TEQ6 1-739) (domain or fragment)”, the binding result in assay [8] is reported as “no binding”.

Take “Xpress-His G5_(845–1287)AxE (from UniProt Q8TEQ6 845-1287) (domain or fragment)”: the binding entry in [9] was “no binding”.

Turning to “Xpress-His G5_(845–1508)AxE (from UniProt Q8TEQ6 845-1508) (domain or fragment)”, in assay [10], the binding entry is reported as “no binding”.

For “Xpress-His G5_(1–1508)AxE (from UniProt Q8TEQ6 1-1508)”, the binding entry in assay [11] is given as “binds”.

For the molecule “G5_(1–1508)-FLAG (from UniProt Q8TEQ6 1-1508)”, the binding entry is listed as “no binding” in assay [12]; “binds” in assay [13]; “binds” in assay [14]; “no binding” in [15]; “binds” in [16]; “binds” in [17].

As for SMN (from UniProt Q16637 1-294), the binding result in assay [1] was “no binding”; in [2], “binds”; in assay [3], “binds”; in assay [4], “no binding”; in assay [5], “binds”; in assay [6] it was “binds”. In addition, the binding entry in [7] is “no binding”.

“Xpress-His G5_(845–1287) (from UniProt Q8TEQ6 845-1287) (domain or fragment)”: the binding entry in [18] is recorded as “binds”.

Consider Gemin2 (from UniProt O14893 1-280), for which the binding entry in [1] is reported as “no binding”; in assay [2], “binds”; in assay [3], “binds”; in assay [4] it was “no binding”; in [5], “binds”; in assay [6] it was “binds”. Further, the binding result in assay [7] is listed as “no binding”.

Consider “Xpress-His G5_(1–1287) (from UniProt Q8TEQ6 1-1287) (domain or fragment)”, for which the binding result in [19] is “binds”.

For the molecule “Xpress-His G5_(1–1287)AxE (from UniProt Q8TEQ6 1-1287) (domain or fragment)”, the binding result in assay [20] is “no binding”.

B1: Xpress-His G5_(845–1508), Q8TEQ6 845-1508 (domain or fragment)
chain: T1 chain
As to B1, in assay [21], the binding entry is given as “binds”.
